{"sequences": {"note": "Sequences of proteins named here, by UniProt entry; tags and fusion partners are left off. Residues count along the entry.", "UniProt O43927, residues 23-109": "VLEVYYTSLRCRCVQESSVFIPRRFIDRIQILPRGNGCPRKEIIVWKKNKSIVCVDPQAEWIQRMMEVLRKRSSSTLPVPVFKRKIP", "UniProt P48061, residues 22-93": "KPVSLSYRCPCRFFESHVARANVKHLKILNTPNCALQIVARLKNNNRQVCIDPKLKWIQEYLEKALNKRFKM", "UniProt P02778, residues 22-98": "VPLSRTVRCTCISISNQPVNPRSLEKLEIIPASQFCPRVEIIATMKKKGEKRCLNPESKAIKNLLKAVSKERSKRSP", "UniProt O14625, residues 22-94": "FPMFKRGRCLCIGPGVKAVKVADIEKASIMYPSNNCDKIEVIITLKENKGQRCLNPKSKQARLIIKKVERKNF", "UniProt P09341, residues 35-107": "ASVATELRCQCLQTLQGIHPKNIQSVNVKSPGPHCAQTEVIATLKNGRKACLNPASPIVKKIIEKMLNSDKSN"}, "source": "paper PMC6643034", "key": {"[1]": {"biological_target": "T1, Evasin 3 (EVA3) (Rhipicephalus sanguineus) (UniProt P0C8E8)", "T1 sequence (chain, glycosylated (periodic acid–Schiff staining))": "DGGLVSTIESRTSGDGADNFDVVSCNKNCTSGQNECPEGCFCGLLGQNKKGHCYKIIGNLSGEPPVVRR", "test": "BLI; OctetRed; evasin held on a nickel-coated biosensor by its C-terminal His tag; cross-binding screen of a panel of human chemokines at 300 nM; both purified"}, "[2]": {"biological_target": "T2, P1126_AMBCA (Amblyomma cajennense)", "T2 sequence": "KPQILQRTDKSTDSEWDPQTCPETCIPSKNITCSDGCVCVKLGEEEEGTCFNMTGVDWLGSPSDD", "test": "BLI; cross-binding screen on OctetRed; evasin held on a nickel-coated biosensor through its C-terminal His tag; each human chemokine at 300 nM; both purified"}, "[3]": {"biological_target": "T3, P1142_AMBCA (Amblyomma cajennense)", "T3 sequence": "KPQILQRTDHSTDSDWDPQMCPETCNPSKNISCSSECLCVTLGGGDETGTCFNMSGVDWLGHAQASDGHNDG", "test": "BLI; cross-binding screen on OctetRed; evasin held on a nickel-coated biosensor through its C-terminal His tag; each human chemokine at 300 nM; both purified"}, "[4]": {"biological_target": "T4, EVA3_RHISA (Rhipicephalus sanguineus) (UniProt P0C8E8)", "T4 sequence": "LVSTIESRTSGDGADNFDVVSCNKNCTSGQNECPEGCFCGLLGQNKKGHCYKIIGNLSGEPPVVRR", "test": "BLI; cross-binding screen on OctetRed; evasin held on a nickel-coated biosensor through its C-terminal His tag; each human chemokine at 300 nM; both purified"}, "[5]": {"biological_target": "T5, P1172_IXORI (Ixodes ricinus) (UniProt V5I2G9)", "T5 sequence": "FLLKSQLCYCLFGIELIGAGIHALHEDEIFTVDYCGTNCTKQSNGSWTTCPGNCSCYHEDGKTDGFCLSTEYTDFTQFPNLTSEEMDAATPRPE", "test": "BLI; cross-binding screen on OctetRed; evasin held on a nickel-coated biosensor through its C-terminal His tag; each human chemokine at 300 nM; both purified"}, "[6]": {"biological_target": "P942_IXORI (Ixodes ricinus)", "test": "BLI; cross-binding screen on OctetRed; evasin held on a nickel-coated biosensor through its C-terminal His tag; each human chemokine at 300 nM; both purified"}, "[7]": {"biological_target": "P1078_IXORI (Ixodes ricinus)", "test": "BLI; cross-binding screen on OctetRed; evasin held on a nickel-coated biosensor through its C-terminal His tag; each human chemokine at 300 nM; both purified"}, "[8]": {"biological_target": "P1086_IXORI (Ixodes ricinus)", "test": "BLI; cross-binding screen on OctetRed; evasin held on a nickel-coated biosensor through its C-terminal His tag; each human chemokine at 300 nM; both purified"}, "[9]": {"biological_target": "P1124_IXORI (Ixodes ricinus)", "test": "BLI; cross-binding screen on OctetRed; evasin held on a nickel-coated biosensor through its C-terminal His tag; each human chemokine at 300 nM; both purified"}, "[10]": {"biological_target": "P1090_IXORI (Ixodes ricinus)", "test": "BLI; cross-binding screen on OctetRed; evasin held on a nickel-coated biosensor through its C-terminal His tag; each human chemokine at 300 nM; both purified"}, "[11]": {"biological_target": "T6, P1172_IXORI displayed on yeast (Ixodes ricinus) (UniProt V5I2G9)", "T6 sequence": "T5 sequence", "test": "flow cytometry on cells; yeast surface display; individual yeast clones displaying an evasin labelled with biotinylated chemokine plus streptavidin-AF647, against streptavidin-AF647 alone or control yeast with the display tag alone; only the binder purified"}, "[12]": {"biological_target": "T7, EVA3_RHISA displayed on yeast (Rhipicephalus sanguineus) (UniProt P0C8E8)", "T7 sequence": "T4 sequence", "test": "flow cytometry on cells; yeast surface display; individual yeast clones displaying an evasin labelled with biotinylated chemokine plus streptavidin-AF647, against streptavidin-AF647 alone or control yeast with the display tag alone; only the binder purified"}, "[13]": {"biological_target": "T8, P1126_AMBCA displayed on yeast (Amblyomma cajennense)", "T8 sequence": "T2 sequence", "test": "flow cytometry on cells; yeast surface display; individual yeast clones displaying an evasin labelled with biotinylated chemokine plus streptavidin-AF647, against streptavidin-AF647 alone or control yeast with the display tag alone; only the binder purified"}, "[14]": {"biological_target": "P1080_IXORI displayed on yeast (Ixodes ricinus)", "test": "flow cytometry on cells; yeast surface display; individual yeast clones displaying an evasin labelled with biotinylated chemokine plus streptavidin-AF647, against streptavidin-AF647 alone or control yeast with the display tag alone; only the binder purified"}, "[15]": {"biological_target": "T9, P1142_AMBCA displayed on yeast (Amblyomma cajennense)", "T9 sequence": "T3 sequence", "test": "flow cytometry on cells; yeast surface display; individual yeast clones displaying an evasin labelled with biotinylated chemokine plus streptavidin-AF647, against streptavidin-AF647 alone or control yeast with the display tag alone; only the binder purified"}}, "note": "These are yes or no findings as the source states them, for the method shown. Some results given as binding are weak or reduced against the parent protein; the word gives no strength. For part of these data: Where a sequence is shown, tags or fusion partners need not be part of it.", "data": [{"substance": "CXCL13 (from UniProt O43927 23-109) (ligand)", "values": [{"measurement": "binding", "setting": "[1]", "result": "no binding (tested: 300 nM)"}, {"measurement": "binding", "setting": "[2]", "result": "no binding (tested: 300 nM)"}, {"measurement": "binding", "setting": "[3]", "result": "no binding (tested: 300 nM)"}, {"measurement": "binding", "setting": "[4]", "result": "no binding (tested: 300 nM)"}, {"measurement": "binding", "setting": "[5]", "result": "no binding (tested: 300 nM)"}]}, {"substance": "CXCL12 (from UniProt P48061 22-93) (ligand)", "values": [{"measurement": "binding", "setting": "[1]", "result": "no binding (tested: 300 nM)"}, {"measurement": "binding", "setting": "[6]", "result": "no binding (tested: 300 nM)"}, {"measurement": "binding", "setting": "[7]", "result": "no binding (tested: 300 nM)"}, {"measurement": "binding", "setting": "[8]", "result": "binds"}, {"measurement": "binding", "setting": "[9]", "result": "binds"}, {"measurement": "binding", "setting": "[2]", "result": "no binding (tested: 300 nM)"}, {"measurement": "binding", "setting": "[10]", "result": "no binding (tested: 300 nM)"}, {"measurement": "binding", "setting": "[3]", "result": "no binding (tested: 300 nM)"}, {"measurement": "binding", "setting": "[4]", "result": "no binding (tested: 300 nM)"}, {"measurement": "binding", "setting": "[5]", "result": "no binding (tested: 300 nM)"}]}, {"substance": "CXC-motif chemokine ligand 10 (CXCL10) (from UniProt P02778 22-98)", "values": [{"measurement": "binding", "setting": "[1]", "result": "no binding (tested: 300 nM)"}]}, {"substance": "CXCL11 (from UniProt O14625 22-94) (ligand)", "values": [{"measurement": "binding", "setting": "[1]", "result": "no binding (tested: 300 nM)"}, {"measurement": "binding", "setting": "[4]", "result": "no binding (tested: 300 nM)"}, {"measurement": "binding", "setting": "[5]", "result": "no binding (tested: 300 nM)"}]}, {"substance": "biotinylated CXCL1 (from UniProt P09341 35-107) (ligand)", "values": [{"measurement": "binding", "setting": "[11]", "result": "binds"}, {"measurement": "binding", "setting": "[12]", "result": "binds"}]}, {"substance": "biotinylated CXCL10 (from UniProt P02778 22-98) (ligand)", "values": [{"measurement": "binding", "setting": "[13]", "result": "binds"}, {"measurement": "binding", "setting": "[14]", "result": "binds"}, {"measurement": "binding", "setting": "[15]", "result": "binds"}]}]}
